According to the RNAGym collection of RNA variant scans (doi:10.1093/nar/gkz1192):
The source gives no read counts; variants with many changes may rest on few reads.

B1: CPEB3 Ribozyme (parent)
chain: UAACAGGGGGCCACAGCAGAAGCGUUCACGUCGCAGCCCCUGUCAGAUUCUGGUGAAUCUGCGAAUUCUGCUGUAUAUCUC

Variants of: B1
Experiment: self-cleavage, relative activity (ratio to wild type); higher = more cleavage; in vitro, sequencing
Procedure, shortened: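 Relative activity compares each variant's cleaved/total read fraction with that of the unmutated ribozyme. To get these fractions, barcoded CPEB3 ribozyme libraries from rounds of error-prone PCR were transcribed with T7 RNA polymerase for 5 hours at 37°C and then given 15 min of DNase I treatment before EDTA was added. The RNAs were reverse transcribed with template switching and sequenced on Illumina, and DNA sequencing linked barcodes to variants. A minimum of 5 reads applied, and three batches were averaged.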

Row | Variant | self-cleavage
1 | C27A A57U U58G | 0.07
2 | C27A A64G A65G | 0.09
3 | C27A C29A U80A | 0.19
4 | C27A C34G U72C | 0.3
5 | C27A C37U U78A | 0.27
6 | C27A G30U U54C U58A G73A | 0.13
7 | C27A G33A A57G | 0.15
8 | C27A G36A U43C U66C | 0.13
9 | C27A U31C A56G A64G | 0.26
10 | C27A U31C U72A | 0.05
11 | C27A U49C U69C | 0.13
12 | C27A U49G C62A | 0.16
13 | C27A U51A A57G | 0.16
14 | C27A U58C U69C A75U | 0.11
15 | C27A U66C U78C | 0.14
16 | C27A U69A U72A | 0.37
17 | C27G A35G A45U A77G | 0.08
18 | C27G A35U C37U U49C A57G | 0.04
19 | C27G C37G U51C U78A | 0.09
20 | C27G G33U U43C G63U | 0.14
21 | C27G G46A U51C U58C U69A A75U | 0.14

Row | Variant | self-cleavage
22 | C27G U43C A56G U80A | 0.24
23 | C27G U48C U78C | 0.13
24 | C27G U54C U80C | 0.26
25 | C27G U60C A64G A77G | 0.05
26 | C27U A28G C40A A56U A64G | 0.17
27 | C27U A35G U60A | 0.26
28 | C27U A45G A47G C71U U72C | 0.06
29 | C27U A47G U49A U51C | 0.12
30 | C27U A47U A56U A57G | 0.08
31 | C27U A56G C62G A64G | 0.12
32 | C27U A56U U74C | 0.12
33 | C27U C39U A45C | 0.2
34 | C27U G52A A77U | 0.1
35 | C27U G52C U74C | 0.3
36 | C27U G53A A57U | 0.22
37 | C27U U31C U49C U67C | 0.1
38 | C27U U41C A64G U66C A77U | 0.07
39 | C27U U43A U48C A64G | 0.07
40 | C27U U43C A45U A47G U60C C81U | 0.05
41 | C27U U49A A57G G63A | 0.08
42 | C27U U51A U80A | 0.56

Row | Variant | self-cleavage
43 | C27U U54A A56G U78C | 0.12
44 | C27U U54A A75G | 0.19
45 | C27U U54C A56G U66C A75U | 0
46 | C27U U54C U60C | 0.41
47 | C27U U54C U67A | 0.13
48 | C27U U72C U76C | 0.16
49 | A28C A35G U51C C81U | 0.69
50 | A28C A35U G63A | 0.2
51 | A28C A35U U41C U54C A64G U66C | 0.14
52 | A28C A35U U41C U60C U72A | 0.08
53 | A28C A35U U41C U67C | 0.07
54 | A28C A35U U67C | 0.12
55 | A28C A45G A56G | 0.42
56 | A28C A45G U60C U66G | 0.35
57 | A28C A45U A56G A75G | 0.16
58 | A28C A45U U54C | 0.1
59 | A28C A47G U51A U78C | 0.25
60 | A28C A56G U80A | 0.61
61 | A28C C38A U48C A65G U67A U80C | 0.1
62 | A28C C39U A56G U80A | 0.18
63 | A28C G30C A56G A65G U74A U78C | 0.06

Row | Variant | self-cleavage
64 | A28C G63A U72C | 0.23
65 | A28C U31C G33A U49C | 0.1
66 | A28C U31C U67A U78C | 0.1
67 | A28C U41C A45G U80C | 0.33
68 | A28C U41C A64G A65U | 0.1
69 | A28C U41C G46A U48G | 0.19
70 | A28C U43A A64G | 0.35
71 | A28C U43A A65G | 0.35
72 | A28C U43A U60C | 0.22
73 | A28C U43C U69A | 0.1
74 | A28C U49A U54C U74C | 0.54
75 | A28C U51A U54C U58A | 0.16
76 | A28C U51C U78C | 0.4
77 | A28C U66C U74C A75G | 0.23
78 | A28C U67C U69C A75G | 0.11
79 | A28C U74G A75U | 0.74
80 | A28G A35C A45G U60C | 0.42
81 | A28G A35G A47G U74C U80C | 1.33
82 | A28G A35G A75G | 1.25
83 | A28G A35G C37G | 0.18
84 | A28G A35G C40A U54G | 0.19
